In PMC4336329 (PLoS ONE, 2015):
Screen size: about 310,000 compounds; about 2,200 (0.71%) showed an effect of 50% or more. The effect is printed as a negative number. Some of the results follow.

What follows are molecules tested against human ether-à-go-go-related gene (hERG) potassium channel (human, UniProt Q12809) (assay: primary screen, population patch clamp on CHO cells stably expressing hERG).
human ether-à-go-go-related gene (hERG) potassium channel, sequence (Q12809 whole entry, looked up): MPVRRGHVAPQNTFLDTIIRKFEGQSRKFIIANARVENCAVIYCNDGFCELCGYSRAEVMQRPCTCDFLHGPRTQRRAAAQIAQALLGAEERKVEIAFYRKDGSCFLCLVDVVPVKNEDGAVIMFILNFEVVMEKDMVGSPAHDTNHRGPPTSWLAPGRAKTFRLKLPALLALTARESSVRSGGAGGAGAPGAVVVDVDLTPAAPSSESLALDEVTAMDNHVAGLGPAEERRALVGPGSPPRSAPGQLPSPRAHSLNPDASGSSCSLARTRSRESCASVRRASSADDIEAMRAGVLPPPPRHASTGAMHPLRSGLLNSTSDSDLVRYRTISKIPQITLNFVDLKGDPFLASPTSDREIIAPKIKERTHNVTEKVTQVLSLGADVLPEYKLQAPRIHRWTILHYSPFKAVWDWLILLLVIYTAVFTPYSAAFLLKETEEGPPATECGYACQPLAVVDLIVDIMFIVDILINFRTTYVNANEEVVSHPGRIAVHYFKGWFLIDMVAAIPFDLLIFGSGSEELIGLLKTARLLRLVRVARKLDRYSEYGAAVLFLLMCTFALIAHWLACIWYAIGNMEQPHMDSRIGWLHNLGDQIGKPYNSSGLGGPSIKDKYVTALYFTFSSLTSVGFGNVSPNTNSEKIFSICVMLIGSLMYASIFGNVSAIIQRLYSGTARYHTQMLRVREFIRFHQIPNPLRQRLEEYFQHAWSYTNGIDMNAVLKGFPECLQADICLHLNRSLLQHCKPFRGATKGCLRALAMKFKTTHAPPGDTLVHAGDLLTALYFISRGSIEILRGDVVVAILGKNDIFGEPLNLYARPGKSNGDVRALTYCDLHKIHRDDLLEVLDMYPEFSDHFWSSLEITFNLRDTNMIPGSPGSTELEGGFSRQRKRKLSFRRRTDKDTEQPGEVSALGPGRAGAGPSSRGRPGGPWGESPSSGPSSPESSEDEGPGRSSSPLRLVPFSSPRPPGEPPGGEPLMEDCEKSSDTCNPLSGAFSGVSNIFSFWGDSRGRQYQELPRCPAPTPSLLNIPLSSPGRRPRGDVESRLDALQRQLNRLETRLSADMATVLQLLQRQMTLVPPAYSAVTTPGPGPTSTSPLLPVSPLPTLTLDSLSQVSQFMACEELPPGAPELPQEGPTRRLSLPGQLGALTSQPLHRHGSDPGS

| Compound | hERG current change (%, negative = inhibition) at 1uM [%] |
| --- | --- |
| O=C(NCCCN1CCCC1=O)C1CCCO1 (centres unmarked) | 12.6 |
| CC1CCN(S(=O)(=O)c2cccc(C(=O)NC3CCCCC3)c2)CC1 | 9.12 |
| OC1(c2ccccc2)Cc2cccc[n+]2C1c1ccccc1.[Br-] (centres unmarked) | 11.4 |
| COc1ccc(C(=O)NCc2csc(-c3cccs3)n2)cc1 | 7.82 |
| CCOC(=O)N1CCN(CC(=O)Nc2ccc(F)cc2)CC1 | -73 |
| COc1ccc2c(c1)CCc1sc(NC(=O)c3ccc(C)cc3)nc1-2 | 14.3 |
| CC(C)Oc1ccc(C(=O)N2CCCc3ccccc32)cc1 | 11 |
| CN(CC(=O)NCCc1ccccc1)S(=O)(=O)c1cccc2nsnc12 | -2.05 |
| O=C1CN(S(=O)(=O)c2ccccc2)CCN1S(=O)(=O)c1ccccc1 | 15.9 |
| N#Cc1ccc(CSc2nnc(NC(=O)c3ccc(=O)[nH]c3)s2)cc1 | 11.9 |
| CCN1CCc2nc3sc(C(=O)Nc4cccnc4Cl)c(N)c3cc2C1 | 7.26 |
| Cc1ccc(-c2nc(NC(=O)CSc3ncn[nH]3)ns2)cc1 | 3.22 |
| Cc1ccnc2nc(C(=O)OCC(=O)Nc3ccc([N+](=O)[O-])cc3Br)nn12 | 10.5 |
| CCOC(=O)c1ccccc1NC(=O)CSc1nnc(COc2ccccc2C)n1C | -9.17 |
| O=C(O)c1nn(CCOc2cccc(Br)c2)c(=O)c2ccccc12 | 9.93 |
| CN(C)c1cccc(C(=O)Nc2ccc(N3CCOCC3)cc2)c1 | 11.2 |
| O=C1CC(C2CCCO2)C(=O)N1c1ccccc1 (centres unmarked) | 13.6 |
| NCC1(CC(=O)O)CCCCC1 | 10.8 |
| COc1ccc(NC(=O)CC2SC(=Nc3ccccc3)NC2=O)c(OC)c1 (centres unmarked) | 10.2 |
| COc1ccc(C(=O)NNC(=O)Cc2ccc(Cl)cc2)cc1 | 3.38 |

| Compound | hERG current change (%, negative = inhibition) at 1uM [%] |
| --- | --- |
| CCNC(=O)C(=O)NCC(c1ccc2c(c1)OCO2)N1CCOCC1 (centres unmarked) | 14.2 |
| COC(=O)c1cc(S(=O)(=O)N2CCCCCC2)c[nH]1 | 12.4 |
| COCCn1c(=S)[nH]c2cc(C(=O)N3CCN(c4cccc(Cl)c4)CC3)ccc2c1=O | -15.6 |
| C/C(=N\NC(=O)C1CC1c1ccccc1)c1cccs1 (centres unmarked) | 0.624 |
| Cc1ccc(C(=O)ONC(=O)c2ccc(Cl)cc2)cc1[N+](=O)[O-] | 10.3 |
| CCOC(=O)CSc1nnc(NC(=O)c2cccc(S(=O)(=O)N3CCCC3)c2)s1 | 11.8 |
| CCCc1cc(-c2n[nH]c(=S)n2CC)c2ccccc2n1 | 7.8 |
| CN(C(=O)Nc1ccccc1)C1CCCCC1 | 14.5 |
| COc1ccc(S(=O)(=O)N2CCN(Cc3ccccc3)CC2)cc1 | 16.1 |
| COc1ccc(-n2nc(C(=O)NCC(=O)NC3CCCCC3)c3ccccc3c2=O)c(OC)c1 | 11.2 |
| O=C(OCc1nc2ccsc2c(=O)[nH]1)c1ccco1 | 11.9 |
| COC(=O)N/N=C/c1ccc(-c2ccc(C)c(Cl)c2)o1 | 13.9 |
| Cc1cc(NC(=O)c2cc3ncc(Br)cn3n2)no1 | 15 |
| CN(C)S(=O)(=O)NCc1ccc2c(c1)OCO2 | 16.3 |
| CC(C)(C)n1nc2c(c1NC(=O)Cc1ccccc1)CS(=O)(=O)C2 | 13.6 |
| O=S(=O)(c1ccc(S(=O)(=O)N(Cc2cccs2)CC2CCCO2)cc1)N1CCCCC1 (centres unmarked) | -1.32 |
| CCCCNC(=O)CSc1ccc(S(=O)(=O)N2CCOCC2)cn1 | 0.428 |
| CCOC(=O)c1nn(-c2ccc(F)cc2)c(C)c1C(C)=O | 9.92 |
| O=C(O)c1ccc(C(=O)O)c(C(=O)c2ccc(NC(=O)c3ccccc3)cc2)c1 | 13.9 |
| COc1ccc(C[C@H]2CN3C(=NC[C@@H]3C)N2CCNC(=O)CCC2CCCCC2)cc1 | -63.7 |

| Compound | hERG current change (%, negative = inhibition) at 1uM [%] |
| --- | --- |
| CCNC(=O)OCCC12CC3CC(CC(C3)C1)C2 | 11.6 |
| Cc1ccc(N2CC(C(=O)N/N=C/c3cccc([N+](=O)[O-])c3)CC2=O)cc1 (centres unmarked) | -6.95 |
| CCN(CC)S(=O)(=O)c1cccc(-c2n[nH]c(=S)n2C(C)COC)c1 (centres unmarked) | 18.2 |
| COC(=O)c1ccsc1NC(=O)c1ccco1 | 12.8 |
| N#Cc1nc(Cc2cccc3ccccc23)oc1NCCCn1ccnc1 | -17.7 |
| COc1ccc(-c2nn(-c3ccccc3)cc2C(=O)OCC(=O)c2ccc(C)c([N+](=O)[O-])c2)cc1 | 8.77 |
| O=C(N/N=C/c1cccc(Oc2ccccc2)c1)c1ccc(O)cc1O | -2.11 |
| CCS(=O)(=O)NCC(c1cccnc1)N1CCN(c2ccccc2)CC1 (centres unmarked) | 5.01 |
| CCOc1ccc2ccccc2c1/C=N/NC(=O)c1ccc(C)nc1 | -0.588 |
| O=C(Nc1ccc2ccccc2c1)C(=O)C1C(=O)Nc2ccccc21 (centres unmarked) | 9.44 |
| Cc1ccc(OCc2nnc(SCC(=O)NCc3ccccc3)n2C)cc1 | 2.67 |
| Cc1nc2ccc(NC(=O)Cc3ccc(Br)cc3)cc2s1 | 13 |
| O=C(Cc1ccccc1)c1c[nH]c(C(=O)NC2CCCC2)c1 | 15.7 |
| O=C(NN=C1CCCC1)NC1CCCCC1 | 0.295 |
| CCOc1ccc(-c2nnc(SCC(=O)O)n2Cc2ccccc2)cc1 | 13.9 |
| Cc1nnc(SCC(=O)N(CC(C)C)C2CCS(=O)(=O)C2)s1 (centres unmarked) | 8.99 |
| CCCC(=O)Nc1ccc(Cc2ccc(NC(=O)CCC)c(C(=O)O)c2)cc1C(=O)O | 9.95 |
| O=C(Nc1ccccc1C(F)(F)F)NC1CCCCCCC1 | -12.8 |
| Cc1noc(C)c1S(=O)(=O)N1CCC(C(=O)N2CCC(C)CC2)CC1 | 8.64 |
